Assay results published in PubChem BioAssay AID504339 (National Center for Advancing Translational Sciences (NCATS), 2011).
About 17,000 (4.4%) of roughly 390,000 compounds were called active. This list was built around the results that the source calls inconclusive (neither active nor inactive); the mix of calls is not that of the screen. Calls follow the shape of the dose curve; as a rule, active = well fitted inhibition curve with a large enough effect; inconclusive = small, poorly fitted or top-dose-only effect; inactive = no such curve, though single readings can be large or run the other way. Potencies of inconclusive entries are doubtful fits and often do not repeat.
% is scaled to controls: 0 for no effect and ±100 for the full control effect; potency is read from the fitted curve at half-maximal effect; tags tell the direction and shape of the fitted curve.
Also: nearly all actives have a fitted effect of over 50% in size.

These compounds were tested against Lysine-specific demethylase 4A (Homo sapiens) (UniProt O75164) (assay: qHTS Assay for Inhibitors of JMJD2A-Tudor Domain). Settings: AlphaScreen JMJD2A-Tudor / H3K4me3 peptide binding; activity change, negative = inhibition: at 114 µM (top of the series).
Sequence of UniProt O75164 (O75164 whole entry, looked up, the tested form may be a part): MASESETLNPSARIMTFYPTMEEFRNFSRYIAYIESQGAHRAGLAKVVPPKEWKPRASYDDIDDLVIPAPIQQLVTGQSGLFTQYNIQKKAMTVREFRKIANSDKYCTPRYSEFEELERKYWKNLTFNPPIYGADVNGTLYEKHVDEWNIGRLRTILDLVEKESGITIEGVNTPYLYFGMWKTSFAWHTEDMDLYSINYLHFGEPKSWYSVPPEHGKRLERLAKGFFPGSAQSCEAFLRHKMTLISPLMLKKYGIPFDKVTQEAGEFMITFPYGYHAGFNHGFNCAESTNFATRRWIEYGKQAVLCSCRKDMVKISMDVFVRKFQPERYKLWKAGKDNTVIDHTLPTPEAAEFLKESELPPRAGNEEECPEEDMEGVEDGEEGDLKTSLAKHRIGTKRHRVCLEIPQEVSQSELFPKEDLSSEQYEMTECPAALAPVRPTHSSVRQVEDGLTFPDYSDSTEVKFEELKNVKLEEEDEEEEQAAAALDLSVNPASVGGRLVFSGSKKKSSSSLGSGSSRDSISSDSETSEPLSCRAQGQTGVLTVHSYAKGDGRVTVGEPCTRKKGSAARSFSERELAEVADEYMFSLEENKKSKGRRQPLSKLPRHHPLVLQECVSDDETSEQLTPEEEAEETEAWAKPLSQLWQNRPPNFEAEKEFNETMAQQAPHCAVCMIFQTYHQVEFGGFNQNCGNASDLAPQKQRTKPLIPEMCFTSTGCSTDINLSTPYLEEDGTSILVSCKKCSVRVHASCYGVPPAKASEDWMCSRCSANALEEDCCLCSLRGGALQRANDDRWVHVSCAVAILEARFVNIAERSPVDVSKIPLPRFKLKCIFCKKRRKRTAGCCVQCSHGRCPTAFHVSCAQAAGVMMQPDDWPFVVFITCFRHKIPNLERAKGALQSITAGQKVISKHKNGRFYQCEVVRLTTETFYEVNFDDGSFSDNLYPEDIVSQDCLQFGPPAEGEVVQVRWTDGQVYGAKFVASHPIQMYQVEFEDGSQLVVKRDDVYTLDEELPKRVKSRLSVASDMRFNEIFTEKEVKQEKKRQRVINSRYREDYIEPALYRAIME
With `Cc1ccccc1NC(=O)Cn1nc(-c2ccccc2)nc1-c1ccccc1` the Potency was inconclusive: 89.1 µM [inhibitor, partial curve, poor fit].
With `O=C(Nc1nnc(S(=O)(=O)N2CCCCC2)s1)c1ccc(F)cc1` the Potency was inconclusive: 14.1 µM [inhibitor, full curve].
With `CC(/C=N/n1c(COc2ccccc2)n[nH]c1=S)=C\c1ccco1` the Potency was inconclusive: 50.1 µM [inhibitor, partial curve].
With `Cn1nnnc1Sc1ncnc2scc(-c3cccs3)c12` the Potency was active: 25.1 µM.
With `CC1=C(C(=O)Nc2ccccc2C)C(c2ccco2)n2ncnc2N1` (centres undefined) the “activity change, negative = inhibition” value was inactive: -3.19%.
`Cc1sc(-n2cccc2)c(C(C)NC(=O)Nc2ccccc2Cl)c1C` (centres undefined) was tested, and the Potency was inconclusive: 89.1 µM [inhibitor, single point].
`CC(O)CN(Cc1cccc(Cl)c1)CC(C)O` (centres undefined) was tested, and the Potency was active: 3.55 µM.
In the case of `COc1ccc(-c2nc3nc(C)cc(Nc4cccc(C(F)(F)F)c4)n3n2)cc1`, the Potency is reported as inconclusive: 56.2 µM [inhibitor, partial curve, poor fit].
`CC(C)COc1ccc(C(=O)Nc2ccccc2[N+](=O)[O-])cc1` was tested, and the Potency was inconclusive: 0.631 µM [inhibitor, full curve, poor fit].
`Cc1sc(N)nc1-c1c(C)n(C)c2ccccc12` was tested, and the “activity change, negative = inhibition” value was inactive: -31%.
In the case of `CCN(Cc1ccccc1)S(=O)(=O)c1ccc(C(=O)N(CCCN(C)C)c2nc3cc(OC)ccc3s2)cc1`, the Potency is reported as inconclusive: 25.1 µM [inhibitor, full curve].
For `COc1cccc(NS(=O)(=O)c2ccc3c(c2)CCC(=O)N3)c1`, the “activity change, negative = inhibition” value was inactive: -2.72%.
In the case of `COc1ccc(NC(=O)COc2ccc(S(=O)(=O)NC3CCCCC3)cc2)c(OC)c1`, the “activity change, negative = inhibition” value is reported as inactive: 0%.
For `Cc1cccc(C)c1OCc1n[nH]c(=S)n1-c1ccccc1`, the Potency was inconclusive: 50.1 µM [inhibitor, partial curve].
In the case of `C/C(N)=C(/C#N)C(=O)CSc1nc(-c2ccccc2)c(-c2ccccc2)o1`, the Potency is reported as inconclusive: 31.6 µM [inhibitor, full curve].
With `CCc1cccc(CC)c1NC(=S)NCCc1ccc(O)c(O)c1` the Potency was inconclusive: 63.1 µM [inhibitor, partial curve].
In the case of `Cc1cccc(N2CCN(c3ccc4cc(S(=O)(=O)N5CCCCC5)ccc4n3)CC2C)c1` (centres undefined), the Potency is reported as inconclusive: 100 µM [inhibitor, single point].
`COC(=O)C1=C(C(=O)OC)SC(=C2C(=S)C(C)(C)N(C(=O)CC(C)C)c3ccccc32)S1` was tested, and the Potency was active: 11.2 µM.
In the case of `COCCCN1C(=O)C(O)=C(C(=O)c2ccc(C)o2)C1c1cccc(Br)c1` (centres undefined), the Potency is reported as active: 89.1 µM.
With `COc1cc(C2/C(=C(/O)c3ccccc3)C(=O)C(=O)N2c2ccccn2)ccc1O` (centres undefined) the Potency was inconclusive: 89.1 µM [inhibitor, single point].
With `COC/C=C/C1=CC2=CC(=O)C(C)(OC(=O)c3cnc4ccccc4n3)C(=O)C2=CN1Cc1ccc(OC)cc1` (centres undefined) the Potency was inconclusive: 79.4 µM [inhibitor, partial curve].
With `CN(CC(=O)Nc1cccc(F)c1)C(=O)COc1ccc2c(c1)CCC2` the “activity change, negative = inhibition” value was inactive: -2.58%.
`Cc1ccc(C(=S)NCS(=O)(=O)c2ccc(C)cc2)cc1` was tested, and the Potency was inconclusive: 89.1 µM [inhibitor, partial curve].
In the case of `CCOC1CCCC(n2cnc3c(=S)nc[nH]c32)O1` (centres undefined), the Potency is reported as active: 17.8 µM.
With `O=C(NC(=S)Nc1cc([N+](=O)[O-])ccc1Cl)c1ccccc1` the “activity change, negative = inhibition” value was inactive: -20.1%.
`CCN1CCN(c2cc(C)c3cc(NC(=O)c4cccc(Cl)c4)ccc3n2)CC1` was tested, and the Potency was inconclusive: 50.1 µM [inhibitor, partial curve].
In the case of `CCN(CC)c1ccc(NC(=O)c2ccc(Br)o2)cc1`, the Potency is reported as active: 44.7 µM.
`Oc1ccc(Br)cc1CNn1cnnc1` was tested, and the “activity change, negative = inhibition” value was inactive: -21.7%.
With `COc1cc(OC)cc(C(=O)OCC(=O)NCc2ccco2)c1` the Potency was inconclusive: 50.1 µM [inhibitor, partial curve].
In the case of `O=C(CSc1nnc(-c2ccccc2O)o1)N1CCCCC1`, the “activity change, negative = inhibition” value is reported as inactive: -2.1%.
In the case of `Cn1c(=O)n(Cc2ccccc2Cl)c(=O)c2c1[nH]c(=S)n2C`, the Potency is reported as active: 12.6 µM.
`S=c1nc(Cc2ccccc2)[nH]c2ccccc12` was tested, and the “activity change, negative = inhibition” value was inactive: -2.74%.
In the case of `COc1cc(C2Nc3c(F)cccc3C3C=CCC32)cc(Br)c1OC` (centres undefined), the “activity change, negative = inhibition” value is reported as inactive: -10.5%.
With `CC(C)N1CCC(NC(=O)Nc2ccc3c(c2)OCO3)CC1` the Potency was inconclusive: 28.2 µM [inhibitor, partial curve].
In the case of `COc1ccccc1/C=N\Nc1ccccc1[N+](=O)[O-]`, the Potency is reported as active: 8.91 µM.
With `O=C(CNC(=O)c1ccc([N+](=O)[O-])cc1)c1ccccc1` the “activity change, negative = inhibition” value was inactive: -6.57%.
With `C=CCNC(=S)N1CCc2c([nH]c3ccccc23)C1C` (centres undefined) the Potency was inconclusive: 50.1 µM [inhibitor, partial curve].
For `O=C1C(Cl)=C(Nc2ccccc2O)C(=O)N1c1ccccc1`, the Potency was active: 35.5 µM.
For `Cc1ccc(NC(=O)CSc2nc3ccccc3c(=O)n2CCCC(=O)NCC2CCCO2)cc1` (centres undefined), the Potency was inconclusive: 17.8 µM [inhibitor, full curve].
In the case of `CCOC(=O)C1(Cc2ccccc2C(F)(F)F)CCN(CCCn2cccn2)CC1`, the “activity change, negative = inhibition” value is reported as inactive: -14.2%.
In the case of `CC(=O)CN1C(=O)NC(c2ccccc2)(c2ccccc2)C1=O`, the Potency is reported as inconclusive: 17.8 µM [inhibitor, partial curve].
For `COc1ccc(S(=O)(=O)N2CCOCC2)cc1NC(=O)CN(C)CC(=O)Nc1cccc(F)c1`, the “activity change, negative = inhibition” value was inactive: -11.1%.
In the case of `Cc1ccc(N(C)S(=O)(=O)c2c[nH]c3ccc([N+](=O)[O-])cc23)cc1`, the Potency is reported as inconclusive: 79.4 µM [inhibitor, single point].
In the case of `COc1ccc(CN(Cc2ccco2)C(=O)c2ccccc2F)cc1`, the “activity change, negative = inhibition” value is reported as inactive: -22.3%.
In the case of `COc1ccc(CN(C(=O)c2cc(=O)c3ccccc3o2)C2CCS(=O)(=O)C2)cc1` (centres undefined), the Potency is reported as inconclusive: 3.98 µM [inhibitor, full curve, poor fit].
For `COc1ccc(NC(=O)COC(=O)CC2CC3CCC2C3)c([N+](=O)[O-])c1` (centres undefined), the Potency was inconclusive: 31.6 µM [inhibitor, full curve].
For `CCn1c(CC2C(=O)Nc3ccccc32)nc2ccccc2c1=O` (centres undefined), the “activity change, negative = inhibition” value was inactive: -22.6%.
With `COc1ccc(C(=O)COC(=O)CCN=C2NS(=O)(=O)c3ccccc32)c(OC)c1` the “activity change, negative = inhibition” value was inactive: 2.76%.
`COc1ccc(Br)cc1C(=O)Nc1ccc(N2CCCC2)cc1` was tested, and the Potency was inconclusive: 14.1 µM [inhibitor, partial curve].
`O=C(NCc1ccccc1CN1CCCCC1)c1ccccc1N1CCCC1=O` was tested, and the Potency was inconclusive: 31.6 µM [inhibitor, single point].
In the case of `NC1C=CC=C(C(=O)O)C1` (centres undefined), the “activity change, negative = inhibition” value is reported as inactive: -20.9%.
For `COc1ccc(C2CC(O)(c3ccccc3)Oc3cc(OC)c(OC)c(OC)c32)cc1` (centres undefined), the Potency was inconclusive: 44.7 µM [inhibitor, partial curve].
`COc1cccc(C2c3c(ncn(-c4ccccc4Cl)c3=N)Oc3ccc4ccccc4c32)c1` (centres undefined) was tested, and the Potency was inconclusive: 50.1 µM [inhibitor, partial curve].
`Cc1[nH]c2ccccc2c1N=Nc1ccccc1F` was tested, and the Potency was active: 44.7 µM.
With `S=c1[nH]nc(-c2n[nH]c3c2CCC3)n1/N=C/C=C/c1ccccc1` the Potency was active: 50.1 µM.
In the case of `CCC1CN(C(=O)Nc2cccc(OC)c2)c2ccccc2O1` (centres undefined), the Potency is reported as inconclusive: 44.7 µM [inhibitor, full curve, poor fit].
In the case of `COc1ccc(N(C)S(=O)(=O)c2cccc(C(=O)Nc3ccc(N4CCOCC4)cc3)c2)cc1`, the Potency is reported as inconclusive: 56.2 µM [inhibitor, partial curve].
`O=S(=O)(c1ccc(Br)cc1)c1nc(-c2ccccc2)oc1NCCN1CCOCC1` was tested, and the Potency was inconclusive: 79.4 µM [inhibitor, partial curve].
In the case of `CCOC(=O)c1c(NC(C)=O)sc2c1CCN(Cc1ccccc1)C2`, the “activity change, negative = inhibition” value is reported as inactive: -25.4%.
With `COCCCNCCOc1ccccc1-c1ccccc1` the Potency was active: 25.1 µM.
For `CCOC(=O)CSC1=C(C#N)C(c2ccc(C)cc2)C2=C(CCCC2=O)N1` (centres undefined), the “activity change, negative = inhibition” value was inactive: 2.54%.
With `Cc1ccc(/C=C/C(=O)NCc2cccs2)cc1` the Potency was inconclusive: 100 µM [inhibitor, single point].
In the case of `COc1ccc(OC)c(NC(=O)c2c(NCc3ccc(OC)c(OC)c3)sc3c2CCC3)c1`, the Potency is reported as inconclusive: 50.1 µM [inhibitor, partial curve].
`Cc1nc2ccc(S(=O)(=O)N3CCN(S(=O)(=O)c4c(F)cccc4F)CC3)cc2s1` was tested, and the “activity change, negative = inhibition” value was inactive: -20.5%.
With `CC/C(=C(/CC)c1ccc(O)cc1)c1ccc(O)cc1` the Potency was inconclusive: 50.1 µM [inhibitor, partial curve].
With `Cc1ccc(NS(=O)(=O)c2cc(NC(=O)c3ccc4c(c3)NC(=O)CS4)ccc2C)c(C)c1` the Potency was inconclusive: 44.7 µM [inhibitor, partial curve].
With `CC(=O)Nc1ccc(S(=O)(=O)NNC(=S)NCC2CCCO2)cc1` (centres undefined) the Potency was inconclusive: 25.1 µM [inhibitor, partial curve, poor fit].
`C/C(=N/N1CCN(Cc2cccc3ccccc23)CC1)c1ccco1` was tested, and the Potency was inconclusive: 56.2 µM [inhibitor, partial curve].
In the case of `CCN(CC)c1ccc(/C=N/Nc2nc3ccccc3[nH]2)cc1`, the Potency is reported as active: 56.2 µM.
For `CN(C)C(=S)NCc1ccccc1`, the Potency was active: 25.1 µM.
For `CCc1ccc(NC(=S)NC2CC3CCCC(C2)N3Cc2ccccc2)cc1` (centres undefined), the Potency was inconclusive: 89.1 µM [inhibitor, partial curve].
For `COc1ccccc1N1N=C(c2ccc([N+](=O)[O-])cc2)CC1c1ccccc1` (centres undefined), the Potency was active: 31.6 µM.
For `CCn1nc(NS(=O)(=O)c2ccc([N+](=O)[O-])cc2)c2cc3cccc(C)c3nc21`, the Potency was inconclusive: 44.7 µM [inhibitor, partial curve].
In the case of `CCOC(=O)C(N)CSC1CC(=O)N(c2ccc(C(=O)OC)cc2)C1=O` (centres undefined), the Potency is reported as inconclusive: 22.4 µM [inhibitor, full curve].
